Source: the supplement of paper PMC10338343
± gives the standard deviation. The list shows a part of the results, in another mix than the full data.

The sequences below were run on MIWI (PIWIL1) piRISC loaded with piRNA #1 (30 nt) (assay: pre-steady-state target cleavage rate (min^-1); MIWI and MILI are mouse PIWI proteins and EfPiwi is from a freshwater sponge; tags in brackets are library labels; higher = faster piRNA-guided slicing of the target). Conditions: guide: piRNA #1 5'p-UGAGGUAGUAGGUUGUAUAGUAUCCAGAGG; auxiliary factor: 500 nM mouse GTSF1.
How it was run: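 Cleave-'n-Seq used a transcribed, DNA-blocked target RNA library at 0.1 nM and active affinity-purified piRISC with one synthetic guide at 1 nM, with or without 500 nM GTSF1 partner protein, in HEPES–potassium acetate buffer at 33 °C for 0–8 or 0–960 min. Uncleaved targets were sequenced and normalised to depth and to weakly complementary targets, and three trials were pooled with k3 capped at 0.0001 min^-1. The pre-steady-state cleavage rate was estimated by a burst-and-steady-state fit.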

Going from GGAGACCUAUCUAUACAUCCUAGUACCUCA to GGAGACCAUACUAUACUACCUACUUCCUCA, the “pre-steady-state target cleavage rate” value rises from 0.0967 ± 0.014 to 0.154 ± 0.019.

First: GGAGACCAUUCUAUACAACCUACUACCUGA
Second: CCUCUGGAUACUAAUACAACCUACUACCUCA
The “pre-steady-state target cleavage rate” value of the first is lower: 0.806 ± 0.078 for the first, 1.83 ± 0.11 for the second.

Going from GGAGACCUUACUAUACAACGUUCUACCUCA to GGAGACGUUUCUAUACAACCUACUACCUCA, the “pre-steady-state target cleavage rate” value rises from 0.0313 ± 0.0078 to 1.18 ± 0.11.

First: GGACUGGAGACUAUACAACCUACUACCUCA
Second: GGAGACCUAUGAUUACUAGCUACUACCUCA
The “pre-steady-state target cleavage rate” value of the first is higher: 1.53 ± 0.1 for the first, < 0.0001 for the second.

Compared with GGAGACCUAUGUAUACAACCUACAACCUCA, GCUGUGGAAACUAUACAACCUACUACCUCA is higher in “pre-steady-state target cleavage rate” value: 0.017 ± 0.0037 for the first, 1.56 ± 0.11 for the second.

GGACUGGAUACAAUACAACCAACUACCUCA and GGAGACCUUACUAUACUAGCUACUACCUCA are within error of each other in “pre-steady-state target cleavage rate” value: 0.0933 ± 0.0097 for the first, 0.101 ± 0.012 for the second.

Compared with GGAGACCUAUGUAUACAACCUUCUACCUCA, GCUCUGGAUACUAGUACAACCUACUACCUCA is higher in “pre-steady-state target cleavage rate” value: 0.0182 ± 0.0029 for the first, 1.58 ± 0.11 for the second.

CCUCUGGAAACUAUACAACCUACUACGUCA and GGAGACGAUACUAAACAACCUACUACCACA are within error of each other in “pre-steady-state target cleavage rate” value: 1.28 ± 0.1 for the first, 1.29 ± 0.085 for the second.

Going from GGAGACCAUAACUAUACAACCUACUACCUCA to GGUCUGGAACUAUACAACCUACUACCUCA, the “pre-steady-state target cleavage rate” value rises from 1.24 ± 0.089 to 1.59 ± 0.087.

First: CCUCUGGAUACAAUACAACCUACUACCACA
Second: GGAGACCUAAUUAUACAACCUACUACCUCA
The “pre-steady-state target cleavage rate” value of the first is higher: 1.9 ± 0.13 for the first, 0.813 ± 0.096 for the second.

Going from CCUGUGGAUACUAUACAACGUACUACCUCA to GGAGUGGAUACAAAACAACCUACUACCUCA, the “pre-steady-state target cleavage rate” value rises from 0.379 ± 0.035 to 0.78 ± 0.089.

First: CCUCUGGAUACAAUACUACCUACUACCUCA
Second: GGAGACGAUAGAUUACAACCUACUACCUCA
The “pre-steady-state target cleavage rate” value of the first is higher: 1.2 ± 0.092 for the first, 0.0545 ± 0.014 for the second.
